Laboratory results published in PubChem BioAssay AID651820 (National Center for Advancing Translational Sciences (NCATS), 2012).
Among all 340,000 compounds or so, about 12,000 (3.5%) were called active. This list was built around the results that the source calls inconclusive (neither active nor inactive); the mix of calls is not that of the screen. Calls come from the whole dose curve; as a rule, active = well fitted inhibition curve with a large enough effect; inconclusive = small, poorly fitted or top-dose-only effect, or another doubt; inactive = no such curve, though single readings can be large or run the other way. No potency is given beside an inconclusive call; the fits are too rough.

Experiment: qHTS Assay for Inhibitors of Hepatitis C Virus (HCV)
Settings: Huh7.5.1 HCVcc-Cre (HCVcc is cell-culture hepatitis C virus) infection, luciferase reporter, 44 h; series mostly up to 41.8 µM
Outline: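 1,000 cells/well; 4 h culture; + compound; + HCVcc-Cre (~0.5 moi); 44 h; luciferase substrate, RT 15 min; read 15 sec.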
Potency is the fitted concentration of half-maximal effect; tags give direction and shape of the fitted curve.

Compound	Potency
CCCc1ccc(OCc2ccc(C(=O)NN)o2)c(OC)c1	inconclusive [inhibitor, single point]
CCC(C)c1ccc(O)c(NC(=O)c2cncc(Br)c2)c1 (stereo unspecified)	inconclusive [inhibitor, partial curve]
C=CCn1c(=O)c2c3c(sc2n2c(Nc4ccccc4)nnc12)CCCC3	inconclusive [inhibitor, full curve, poor fit]
Cc1cccc2nc(CNC(=O)CC3C(=O)NCCN3Cc3cccc(F)c3)cn12 (stereo unspecified)	inconclusive [inhibitor, single point]
Nc1c(C(=O)NCCc2ccccc2)c2nc3ccccc3nc2n1CCN1CCOCC1	inconclusive [inhibitor, single point]
CCOC(=O)c1cc(CC)sc1/N=C/C1C(=O)NC(=S)NC1=O	inactive
Nc1c2c3c(sc2nc(=O)n1N)CCCC3	inactive
COc1ccccc1OC(C)C(=O)Nc1ccc2c(c1)OCCO2 (stereo unspecified)	inactive
CN(C)C(=O)CCc1ccc2c3c([nH]c2c1)[C@]1(C)[C@@H](C(=O)N2CCCCC2)C[C@H](CC(=O)NC(C)(C)C)C(=O)N1CC3	inconclusive [inhibitor, single point]
CCC(C)(NC(=O)c1ccc2c(c1)OCO2)C(=O)NC1CCCCC1 (stereo unspecified)	inactive
CN(CC(=O)Nc1ccc(F)cc1)CC(=O)N1CCCCC1	inactive
Cc1cccc(NC(=O)c2sc3ncn(CC(=O)N4CCN(c5ccccn5)CC4)c(=O)c3c2C)c1	inconclusive [inhibitor, single point]
O=C(Nc1ccc(Cl)cn1)c1ccc(Oc2ccccc2)cc1	inconclusive [inhibitor, single point]
O=C(CN1CCN(CC(=O)Nc2ccccc2Cl)CC1)NCC1(N2CCCCC2)CCCCC1	inactive
C/C(=N\Nc1ncc(Cl)cc1Cl)c1ccccn1	inconclusive [inhibitor, partial curve, poor fit]
CCN(CCNC(=O)C1CCCN(c2ncnc3c2nc2n3CCCCC2)C1)Cc1ccccc1 (stereo unspecified)	inactive
O=C(CSc1nc(N2CCOCC2)nc(N2CCOCC2)n1)Nc1ccc([N+](=O)[O-])cc1	inconclusive [inhibitor, partial curve]
CCc1nnc2c(NCCc3ccccc3)nc3ccccc3n12	inactive
O=C(Nc1ccccn1)C1COc2ccccc2O1 (stereo unspecified)	inactive
CCOC(=O)CSc1nc(N2CCOCC2)c2c(c1C#N)CC(C)(C)N(C)C2	inactive
O=C(NCCOc1ccccc1F)C1CC(=O)N(c2ccc3c(c2)OCCO3)C1 (stereo unspecified)	inconclusive [inhibitor, single point]
